Data reported in the supplement of paper PMC12645437, “Orthogonal IMiD-Degron Pairs Induce Selective Protein Degradation in Cells” (ACS Chemical Biology, 2025).
The list shows a part of the results.

Biological target: no compound (DMSO)
Assay: log2 fold change of degron read counts, EGFP-low vs EGFP+ sorted cells; higher = lower degron-EGFP level without compound (poor expression or instability)
Settings: compound: DMSO control; 18 h
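Note: jurkat cells carrying a lentiviral library of mutant zinc finger degrons fused to EGFP plus mCherry, mCherry+ cells FACS sorted, degron abundance counted by next-generation sequencing.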

Sequence	log2 fold change of degron read counts
FMCSVCGHEFTQKGNLLRHIKL	-1.62
FSCNQCGHEFTQKGNLLRHIKL	-0.735
FQCPQCGALFTQKGNLLRHIKL	-0.538
FWCEICGACFTQKGNLLRHIKL	-0.378
FACNQCGRVFTQKGNLLRHIKL	0.209
FVCNQCGRHFTQKGNLLRHIKL	-0.704
FGCEICGALFTQKGNLLRHIKL	-0.752
FDCPVCGAYFTQKGNLLRHIKL	-0.379
FKCEICGRFFTQKGNLLRHIKL	-1.65
FGCSVCGHIFTQKGNLLRHIKL	1.02
FDCEICGHEFTQKGNLLRHIKL	-1.19
FLCPICGRNFTQKGNLLRHIKL	-0.237
FLCEICGAEFTQKGNLLRHIKL	-2.74
FWCDVCGASFTQKGNLLRHIKL	-0.493
FTCSVCGHYFTQKGNLLRHIKL	0.0416
FYCPVCGAHFTQKGNLLRHIKL	0.556
FWCPQCGARFTQKGNLLRHIKL	0.487
LMCPICGFICTQKGNLLRHIKL	1.7
FFCPICGHKFTQKGNLLRHIKL	-0.263
FACNQCGRWFTQKGNLLRHIKL	1.06
FMCEICGRIFTQKGNLLRHIKL	-0.0639
FVCEVCGASFTQKGNLLRHIKL	-1.47
FHCEQCGAKFTQKGNLLRHIKL	-1.86
FMCPICGAFFTQKGNLLRHIKL	0.437
FICEQCGAYFTQKGNLLRHIKL	-0.127

Sequence	log2 fold change of degron read counts
FYCEQCGAQFTQKGNLLRHIKL	-0.375
FGCEICGAMFTQKGNLLRHIKL	-0.821
FWCPICGAEFTQKGNLLRHIKL	0.893
LECPICGFPCTQKGNLLRHIKL	0.234
FSCNQCGATFTQKGNLLRHIKL	-0.565
FHCNQCGRYFTQKGNLLRHIKL	0.805
FNCPICGRPFTQKGNLLRHIKL	-0.21
FVCPQCGACFTQKGNLLRHIKL	-0.984
FVCNQCGHKFTQKGNLLRHIKL	-1.34
LDCPICGFYCTQKGNLLRHIKL	1.09
FSCDICGAKFTQKGNLLRHIKL	-0.896
FQCDICGATFTQKGNLLRHIKL	-1.67
FMCEICGHFFTQKGNLLRHIKL	-0.594
FACEICGHRFTQKGNLLRHIKL	-1.85
LKCPICGFHCTQKGNLLRHIKL	0.11
FMCNQCGASFTQKGNLLRHIKL	-1.05
FDCEICGHNFTQKGNLLRHIKL	-1.08
FLCDQCGAFFTQKGNLLRHIKL	-1.31
LFCEICGFECTQKGNLLRHIKL	-0.92
FGCPQCGAQFTQKGNLLRHIKL	-0.996
FHCPVCGAVFTQKGNLLRHIKL	-0.224
FYCEICGRGFTQKGNLLRHIKL	-2.31
FWCNQCGHWFTQKGNLLRHIKL	2.1
FWCNQCGHTFTQKGNLLRHIKL	0.872
LICEICGFPCTQKGNLLRHIKL	0.529
